# Measured values from the supplement of paper PMC3334620.
# In all, about 33,000 sequences were measured (“E-score (-0.5 to 0.5)”: median about -0.017, highest 2% from about 0.3 on). Some of the results follow.
# Target: T1, Sut1 (UniProt P53032)
# T1 sequence: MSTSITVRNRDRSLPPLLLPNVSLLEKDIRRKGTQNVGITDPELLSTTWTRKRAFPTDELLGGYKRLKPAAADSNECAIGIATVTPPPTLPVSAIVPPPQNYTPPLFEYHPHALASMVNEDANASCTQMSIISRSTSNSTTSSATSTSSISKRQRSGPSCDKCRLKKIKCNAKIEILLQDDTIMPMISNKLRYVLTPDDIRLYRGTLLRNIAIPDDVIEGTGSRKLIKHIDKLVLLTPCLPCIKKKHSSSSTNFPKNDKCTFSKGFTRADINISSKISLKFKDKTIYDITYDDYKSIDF
# Assay: PBM E-score (8-mer binding enrichment) (E-score (-0.5 to 0.5)); higher = stronger / more preferred TF binding; most listed sequences are background and not binding sites
# Conditions: protein concentration: 200 nM; construct: GST-full length
# Method: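 Universal 'all 10-mer' protein binding microarrays (Agilent AMADID 015681) probed with GST-tagged S. cerevisiae TFs (full-length or DBD) made by in vitro transcription/translation (PURExpress), about 100-200 nM. Bound TF was detected with fluorescent anti-GST. Each ungapped 8-mer (which stands for itself and its reverse complement) is scored by the PBM enrichment score (E-score), a modified Wilcoxon-Mann-Whitney statistic from -0.5 to +0.5, computed with the Universal PBM Analysis Suite. Scale: above 0.35 generally sequence-specific binding.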
row,Sequence,PBM E-score
1,AGTCTCAT,0.0486
2,CACATGTA,0.0946
3,CCCAGTTA,-0.142
4,ACCGCCCG,-0.16
5,AAGTCGGG,-0.0631
6,ATAATATC,0.291
7,GACTTTGA,0.0429
8,CCCAGTGA,-0.194
9,CGCAACAC,-0.0862
10,GCGCAACC,-0.15
11,CCGATATA,0.183
12,GTTCCCAA,-0.0964
13,CGCTAGCC,-0.212
14,CTCCTCAA,-0.0732
15,AATTATTA,0.305
16,CTCCCCAA,-0.148
17,CCGTTCAG,0.0537
18,AGTTGCCG,-0.0439
19,CTTAGGCC,-0.18
20,ATCTAAAG,0.108
21,ACGTCTAA,0.0309
22,CCTTTTCG,0.0621
23,GCGCATAC,-0.179
24,GGTCTAGA,-0.118
25,CATTACGG,-0.0054

row,Sequence,PBM E-score
1,CACGGTAA,0.0752
2,AAGAGTGG,-0.205
3,GGAACCAA,0.00579
4,GATCCCCC,-0.213
5,ACACAGGC,-0.0837
6,GAACGTTA,-0.102
7,GGATACTA,-0.064
8,CCGCGTAG,-0.117
9,TAACGCAA,-0.0186
10,GATGATGC,-0.181
11,GTGCCATA,-0.132
12,GCTAAGCC,-0.123
13,CCGTCCAG,-0.098
14,CTCCGGAC,0.473
15,AACGCGCG,0.148
16,GGCAGCGA,-0.111
17,GGGATACA,-0.064
18,ATGGAAAT,0.18
19,GGTCTCGA,0.00072
20,GACGGTCA,-0.253
21,ACCGAGGC,-0.207
22,AGAAATCA,0.226
23,CCCCTAGA,-0.257
24,CCACACAC,0.0627
25,GTCACAAC,-0.0323

row,Sequence,PBM E-score
1,CGACGGAA,0.116
2,GCGAGGAC,-0.19
3,CTTGCTTC,0.128
4,AGTTCATA,0.049
5,AAGCACCG,-0.0914
6,GCGCCTGA,-0.0731
7,CACTGGAC,-0.0388
8,ATAGGGAT,0.0394
9,TCCCGGGA,-0.0502
10,ACTACTTA,0.139
11,CTCTGGAA,-0.202
12,ACAACAAA,0.19
13,CCTCGGCA,-0.0698
14,CCGAGATA,0.239
15,CGAGCAAA,-0.0663
16,AAACCGCG,0.266
17,GGCCAGAA,-0.0485
18,CAGACGAA,0.298
19,CGCTTCGA,0.0968
20,GACAGATA,0.0695
21,GTCATTAA,0.196
22,CAGCTACG,-0.289
23,CGCGGTCC,0.0314
24,CATGCTTC,-0.0576
25,AAATGAAC,0.101

row,Sequence,PBM E-score
1,GGCAGTTA,-0.137
2,CAACGGCA,-0.0932
3,GATCGCAA,-0.0316
4,GCCACGTA,-0.239
5,CCCGCAGC,-0.0461
6,GGGAAATA,0.0403
7,CTATCTGC,-0.0665
8,ATGGTAAC,0.0287
9,CCATCGAC,-0.103
10,GAACGTCC,-0.0131
11,AACTATGA,0.135
12,TAGAAAAA,0.19
13,AGGCCATA,-0.255
14,ACTTAGTG,0.0253
15,ATCGATAC,0.0483
16,AGGATAAC,-0.0991
17,CACCTGGG,-0.292
18,AGTGATGG,-0.054
19,AGCCACGA,-0.106
20,GTTGGTTA,0.0973
21,AGTTTACG,0.103
22,AGTCTTAT,0.0262
23,CTACGCAA,-0.0133
24,CCTAGCAG,-0.284
25,CAATGATA,0.144

row,Sequence,PBM E-score
1,CCTCACAG,-0.16
2,GTTTGGTA,0.178
3,AGTTCACC,0.101
4,GAGGCCAC,-0.125
5,CGTGATAA,0.0521
6,ATTCTTCG,0.026
7,AAAGCCTT,0.0186
8,CTGCATAA,0.0577
9,GTGGCCCA,-0.22
10,AGGTAATA,0.239
11,ATCCCTCG,-0.0959
12,AGGCCACA,-0.278
13,CTGATCGA,-0.17
14,AATACAGC,0.085
15,CAAAAGCC,-0.0886
16,CGATTGTC,0.104
17,TCCCCAAA,0.0678
18,AGGTCGTG,-0.236
19,GAAGGTAC,-0.197
20,ACTTCATC,0.145
21,CCGCGGCG,0.0767
22,CCAGTGAA,0.00618
23,GACGCCTA,-0.302
24,AAGACTCG,0.0602
25,CAAGACCC,-0.304

row,Sequence,PBM E-score
1,CACGCTGA,-0.124
2,CAGCGCAG,-0.114
3,AGCACAAC,0.109
4,CTGGTTTC,-0.0186
5,ACCGAACT,0.126
6,AAATTGTG,0.0696
7,AAGGCTGA,-0.202
8,AAGAACAC,0.0781
9,CAGTGCAC,-0.0523
10,GACCCCAC,-0.154
11,AAAAACAC,0.108
12,ACCTGACC,-0.301
13,TCAATGGA,-0.004
14,GAGAACCC,-0.169
15,GGTCGTGA,-0.2
16,ATACTTTG,0.119
17,AATTATCT,0.207
18,AGATGCAG,-0.255
19,CTCTTATA,0.148
20,GTAGCGTA,-0.0771
21,AGTGTGCA,-0.0527
22,ACGTTGAT,0.116
23,CTGGCGGC,0.146
24,CAAGACGA,0.0668
25,ACAGCCCA,-0.267

row,Sequence,PBM E-score
1,ATTTGAGC,0.105
2,CATAGGTA,-0.118
3,ATGACATA,0.055
4,CGATGCAA,0.0127
5,CCGACCGG,0.0937
6,ATTCGATG,-0.0901
7,ATCGCTCA,-0.115
8,GGGAGCCC,-0.286
9,AGCCATGA,0.0293
10,AACATTTA,0.187
11,CAGATTAG,-0.0969
12,TAACTTCA,0.0919
13,CTGTTGTA,0.0819
14,AAAGAACA,0.276
15,GACAACAA,0.106
16,AGCGGAAG,0.0483
17,AGTGAAGA,-0.0804
18,GAGTGCAC,-0.129
19,AATTTTCC,0.238
20,AGAGATAT,0.00084
21,CCTATAAA,-0.0583
22,CGGGAAAA,0.0862
